# Laboratory results as given in paper PMC9911399, “Two distinct binding modes provide the RNA-binding protein RbFox with extraordinary sequence specificity”.
# Substitutions are numbered along the chain they refer to; changes in the protein carry UniProt numbers. Some of the results follow.
# T1: RBFOX1 RRM (Homo sapiens, UniProt Q9NWB1 109-208)
# T1 sequence: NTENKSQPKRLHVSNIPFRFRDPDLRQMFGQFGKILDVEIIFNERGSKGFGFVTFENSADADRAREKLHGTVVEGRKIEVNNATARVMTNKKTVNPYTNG
# B1: UCACAUC (DNA:RNA)
# RNA: GGGAGACCGGAAUUCAGAUUGUCCUCACAUCUUAAAUCCCGUCGUAGCCACCA
# DNA 1: CAATCTGAATTCCGGTCTCCC
# DNA 2: TGGTGGCTACGACGGGATT
# B2: UGUAUGU (DNA:RNA)
# RNA: B1 RNA with C26G, A27U, C28A, A29U, U30G, C31U
# DNA 1: CAATCTGAATTCCGGTCTCCC
# DNA 2: TGGTGGCTACGACGGGATT
# B3: UAUUCCC (DNA:RNA)
# RNA: B1 RNA with C26A, A27U, C28U, A29C, U30C
# DNA 1: CAATCTGAATTCCGGTCTCCC
# DNA 2: TGGTGGCTACGACGGGATT
# B4: UCCCUAG (DNA:RNA)
# RNA: B1 RNA with A27C, A29U, U30A, C31G
# DNA 1: CAATCTGAATTCCGGTCTCCC
# DNA 2: TGGTGGCTACGACGGGATT
# B5: GGGCGGC (DNA:RNA)
# RNA: B1 RNA with U25G, C26G, A27G, A29G, U30G
# DNA 1: CAATCTGAATTCCGGTCTCCC
# DNA 2: TGGTGGCTACGACGGGATT
# B6: GUAAGCG (DNA:RNA)
# RNA: B1 RNA with U25G, C26U, C28A, A29G, U30C, C31G
# DNA 1: CAATCTGAATTCCGGTCTCCC
# DNA 2: TGGTGGCTACGACGGGATT
# B7: UAGUUCA (DNA:RNA)
# RNA: B1 RNA with C26A, A27G, C28U, A29U, U30C, C31A
# DNA 1: CAATCTGAATTCCGGTCTCCC
# DNA 2: TGGTGGCTACGACGGGATT
# B8: UGACCAG (DNA:RNA)
# RNA: B1 RNA with C26G, A29C, U30A, C31G
# DNA 1: CAATCTGAATTCCGGTCTCCC
# DNA 2: TGGTGGCTACGACGGGATT
# B9: CUGGCUG (DNA:RNA)
# RNA: B1 RNA with U25C, C26U, A27G, C28G, A29C, C31G
# DNA 1: CAATCTGAATTCCGGTCTCCC
# DNA 2: TGGTGGCTACGACGGGATT
# B10: GAACGCU (DNA:RNA)
# RNA: B1 RNA with U25G, C26A, A29G, U30C, C31U
# DNA 1: CAATCTGAATTCCGGTCTCCC
# DNA 2: TGGTGGCTACGACGGGATT
# B11: CCUGCAU (DNA:RNA)
# RNA: B1 RNA with U25C, A27U, C28G, A29C, U30A, C31U
# DNA 1: CAATCTGAATTCCGGTCTCCC
# DNA 2: TGGTGGCTACGACGGGATT
# B12: CCAUGGC (DNA:RNA)
# RNA: B1 RNA with U25C, C28U, A29G, U30G
# DNA 1: CAATCTGAATTCCGGTCTCCC
# DNA 2: TGGTGGCTACGACGGGATT
# B13: AGGGUCC (DNA:RNA)
# RNA: B1 RNA with U25A, C26G, A27G, C28G, A29U, U30C
# DNA 1: CAATCTGAATTCCGGTCTCCC
# DNA 2: TGGTGGCTACGACGGGATT
# B14: GGGGCAU (DNA:RNA)
# RNA: GGGAGACCGGAAUUCAGAUUGUCCGGGGCAUUUAAAUCCCGUCGUAGCCACCA
# DNA 1: CAATCTGAATTCCGGTCTCCC
# DNA 2: TGGTGGCTACGACGGGATT
# B15: AAUUUCA (DNA:RNA)
# RNA: GGGAGACCGGAAUUCAGAUUGUCCAAUUUCAUUAAAUCCCGUCGUAGCCACCA
# DNA 1: CAATCTGAATTCCGGTCTCCC
# DNA 2: TGGTGGCTACGACGGGATT
# B16: CAUGAAG (DNA:RNA)
# RNA: B15 RNA with A25C, U28G, U29A, C30A, A31G
# DNA 1: CAATCTGAATTCCGGTCTCCC
# DNA 2: TGGTGGCTACGACGGGATT
# B17: CUUUGCU (DNA:RNA)
# RNA: B15 RNA with A25C, A26U, U29G, A31U
# DNA 1: CAATCTGAATTCCGGTCTCCC
# DNA 2: TGGTGGCTACGACGGGATT
# B18: UUGUGCA (DNA:RNA)
# RNA: B15 RNA with A25U, A26U, U27G, U29G
# DNA 1: CAATCTGAATTCCGGTCTCCC
# DNA 2: TGGTGGCTACGACGGGATT
# B19: AUCACGG (DNA:RNA)
# RNA: B15 RNA with A26U, U27C, U28A, U29C, C30G, A31G
# DNA 1: CAATCTGAATTCCGGTCTCCC
# DNA 2: TGGTGGCTACGACGGGATT
# B20: GGUAUUG (DNA:RNA)
# RNA: B15 RNA with A25G, A26G, U28A, C30U, A31G
# DNA 1: CAATCTGAATTCCGGTCTCCC
# DNA 2: TGGTGGCTACGACGGGATT
# B21: GCUCGCC (DNA:RNA)
# RNA: B1 RNA with U25G, A27U, A29G, U30C
# DNA 1: CAATCTGAATTCCGGTCTCCC
# DNA 2: TGGTGGCTACGACGGGATT
# B22: UUAGGAA (DNA:RNA)
# RNA: B14 RNA with G25U, G26U, G27A, C29G, U31A
# DNA 1: CAATCTGAATTCCGGTCTCCC
# DNA 2: TGGTGGCTACGACGGGATT
# B23: UGUCACA (DNA:RNA)
# RNA: B15 RNA with A25U, A26G, U28C, U29A
# DNA 1: CAATCTGAATTCCGGTCTCCC
# DNA 2: TGGTGGCTACGACGGGATT
# B24: GCUGGCC (DNA:RNA)
# RNA: B15 RNA with A25G, A26C, U28G, U29G, A31C
# DNA 1: CAATCTGAATTCCGGTCTCCC
# DNA 2: TGGTGGCTACGACGGGATT
# B25: UAGCUGC (DNA:RNA)
# RNA: B1 RNA with C26A, A27G, A29U, U30G
# DNA 1: CAATCTGAATTCCGGTCTCCC
# DNA 2: TGGTGGCTACGACGGGATT
# B26: GCUUGCA (DNA:RNA)
# RNA: B15 RNA with A25G, A26C, U29G
# DNA 1: CAATCTGAATTCCGGTCTCCC
# DNA 2: TGGTGGCTACGACGGGATT
# B27: GUCACAC (DNA:RNA)
# RNA: B14 RNA with G26U, G27C, G28A, U31C
# DNA 1: CAATCTGAATTCCGGTCTCCC
# DNA 2: TGGTGGCTACGACGGGATT
# B28: UACAAAC (DNA:RNA)
# RNA: B1 RNA with C26A, A27C, C28A, U30A
# DNA 1: CAATCTGAATTCCGGTCTCCC
# DNA 2: TGGTGGCTACGACGGGATT
# B29: GAAACCA (DNA:RNA)
# RNA: B15 RNA with A25G, U27A, U28A, U29C
# DNA 1: CAATCTGAATTCCGGTCTCCC
# DNA 2: TGGTGGCTACGACGGGATT
# B30: CCGUAUU (DNA:RNA)
# RNA: B1 RNA with U25C, A27G, C28U, C31U
# DNA 1: CAATCTGAATTCCGGTCTCCC
# DNA 2: TGGTGGCTACGACGGGATT
# B31: GAGCAAU (DNA:RNA)
# RNA: B14 RNA with G26A, G28C, C29A
# DNA 1: CAATCTGAATTCCGGTCTCCC
# DNA 2: TGGTGGCTACGACGGGATT
# Molecular target: T1, RBFOX1 RRM
# Assay: EMSA; HiTS-Eq, 1 nM pool, 10 min; buffer printed only for the single-RNA assays: 10 mM Tris pH 7.5, 150 mM NaCl, 3.4 mM EDTA, 0.001% NP-40, 30 C
# Details: tags: His6 N-terminal (pET28a); label: 5' 32P
# Method in brief: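 Relative association constants, normalised to the cognate motif, were derived by comparing read counts of each RNA species with those of the control reaction. The RNA sequenced was the free fraction, separated by 8% native PAGE after a 10 min equilibration in 50 µL of 1 nM 5′-radiolabelled RNA (7 randomized nucleotides) with increasing concentrations of purified wild-type or mutant RbFox RRM.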
row,Binder,binding signal
1,B1,0.00136 KA relative to UGCAUGU
2,B2,0.0297 KA relative to UGCAUGU
3,B3,0.00154 KA relative to UGCAUGU
4,B4,0.00644 KA relative to UGCAUGU
5,B5,0.0231 KA relative to UGCAUGU
6,B6,0.0139 KA relative to UGCAUGU
7,B7,0.00722 KA relative to UGCAUGU
8,B8,0.0127 KA relative to UGCAUGU
9,B9,0.0348 KA relative to UGCAUGU
10,B10,0.0123 KA relative to UGCAUGU
11,B11,0.0157 KA relative to UGCAUGU
12,B12,0.0106 KA relative to UGCAUGU
13,B13,0.0256 KA relative to UGCAUGU
14,B14,0.0283 KA relative to UGCAUGU
15,B15,0.00313 KA relative to UGCAUGU
16,B16,0.00725 KA relative to UGCAUGU

row,Binder,binding signal
1,B17,0.021 KA relative to UGCAUGU
2,B18,0.0279 KA relative to UGCAUGU
3,B19,0.00619 KA relative to UGCAUGU
4,B20,0.0177 KA relative to UGCAUGU
5,B21,0.0193 KA relative to UGCAUGU
6,B22,0.00453 KA relative to UGCAUGU
7,B23,0.00919 KA relative to UGCAUGU
8,B24,0.0186 KA relative to UGCAUGU
9,B25,0.0179 KA relative to UGCAUGU
10,B26,0.0329 KA relative to UGCAUGU
11,B27,0.00436 KA relative to UGCAUGU
12,B28,0.000235 KA relative to UGCAUGU
13,B29,0.00223 KA relative to UGCAUGU
14,B30,0.00422 KA relative to UGCAUGU
15,B31,0.00612 KA relative to UGCAUGU
